In the supplement of paper PMC10037445:
The full ranking holds about 2,900 compounds; the median of “NF-kB SEAP reporter activity, fold change vs agonist alone” is about 0.99, and the highest 2% start at about 2.6. This is one part of the list.

How the values were obtained:
[1] = system: RAW-Dual; assay: NF-kB SEAP reporter activity, fold change vs agonist alone; cytotoxicity flag (confluency mask): not cytotoxic; higher = enhanced NF-kB activity
Method in brief: (§1)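 Library stock was pin-tooled at 50 nL into 384-well plates of RAW-Dual macrophages (50,000 cells/well, DMEM), followed 1 h later by a PRR agonist, and the cells were kept at 37 °C, 5% CO2. Supernatant collected after 20 hours was read for IRF by QuantiLuc luminescence and for NF-κB by QuantiBlue absorbance at 620 nm. Reporter activity is fold change over agonist-alone wells, and a well counted as cytotoxic when its IncuCyte confluency was below 70% of agonist controls in both mask sets.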

[2] = system: RAW-Dual; assay: NF-kB SEAP reporter activity, fold change vs agonist alone; higher = enhanced NF-kB activity; settings: cytotoxicity flag (confluency mask): not cytotoxic
Method in brief: as §1

[3] = agonist: ODN 1826 (TLR9) 0.5 ug/mL
[4] = agonist: Pam2CSK4 (TLR2/6) 0.1 ug/mL
[5] = agonist: Pam3CSK4 (TLR2/1) 0.1 ug/mL
[6] = library stock concentration (final ~1000-fold dilution): 10 mM, agonist: Imiquimod (TLR7) […]
[7] = library stock concentration (final ~1000-fold dilution): 10 mM, agonist: MPLA (TLR4) […]

CC(C)(C)C(=O)Nc1ccc2c(c1)C(=O)C(=O)c1ccccc1-2 (library stock concentration (final ~1000-fold dilution): 10 mM)
NF-kB SEAP reporter activity ([1]; agonist: LPS (TLR4) 0.1 ug/mL): 0.226
NF-kB SEAP reporter activity [1, 3]: 0.746
NF-kB SEAP reporter activity [1, 4]: 0.0627
NF-kB SEAP reporter activity [1, 5]: 0.155

CC(C)(C)C(=O)Nc1ccc2c(c1)C(=O)C(=O)c1ccccc1-2
NF-kB SEAP reporter activity [2, 6]: 0.149
NF-kB SEAP reporter activity [2, 7]: 0.156

COC(=O)C1=C(C)NC(C)=C(C(=O)OCCN(C)Cc2ccccc2)C1c1cccc([N+](=O)[O-])c1.Cl (stereo not drawn)
NF-kB SEAP reporter activity [2, 6]: 0.66
NF-kB SEAP reporter activity [2, 7]: 0.838

COC(=O)C1=C(C)NC(C)=C(C(=O)OCCN(C)Cc2ccccc2)C1c1cccc([N+](=O)[O-])c1.Cl (stereo not drawn) (library stock concentration (final ~1000-fold dilution): 10 mM)
NF-kB SEAP reporter activity ([1]; agonist: LPS (TLR4) 0.1 ug/mL): 0.765
NF-kB SEAP reporter activity [1, 3]: 0.415
NF-kB SEAP reporter activity [1, 4]: 0.579
NF-kB SEAP reporter activity [1, 5]: 0.442

Nc1c(CC(=O)O)cccc1C(=O)c1ccccc1
NF-kB SEAP reporter activity [2, 6]: 0.882
NF-kB SEAP reporter activity [2, 7]: 1.04

Nc1c(CC(=O)O)cccc1C(=O)c1ccccc1 (library stock concentration (final ~1000-fold dilution): 10 mM)
NF-kB SEAP reporter activity ([1]; agonist: LPS (TLR4) 0.1 ug/mL): 1.07
NF-kB SEAP reporter activity [1, 3]: 0.974
NF-kB SEAP reporter activity [1, 4]: 1.12
NF-kB SEAP reporter activity [1, 5]: 1.21

COc1cccc(C=Nc2cccc(C(=O)O)c2C)c1O
NF-kB SEAP reporter activity ([2]; library stock concentration (final ~1000-fold dilution): 1 mM, agonist: Imiquimod (TLR7) […]): 1.42
NF-kB SEAP reporter activity ([2]; library stock concentration (final ~1000-fold dilution): 1 mM, agonist: MPLA (TLR4) […]): 1.06

COc1cccc(C=Nc2cccc(C(=O)O)c2C)c1O (library stock concentration (final ~1000-fold dilution): 1 mM)
NF-kB SEAP reporter activity ([1]; agonist: LPS (TLR4) 0.1 ug/mL): 1.08
NF-kB SEAP reporter activity [1, 3]: 1.3
NF-kB SEAP reporter activity [1, 4]: 1.16
NF-kB SEAP reporter activity [1, 5]: 1.15

Nc1nc(NC2CC2)c2ncn(C3C=CC(CO)C3)c2n1 (stereo not drawn)
NF-kB SEAP reporter activity [2, 7]: 1.16

Nc1nc(NC2CC2)c2ncn(C3C=CC(CO)C3)c2n1 (stereo not drawn) (library stock concentration (final ~1000-fold dilution): 10 mM)
NF-kB SEAP reporter activity ([1]; agonist: LPS (TLR4) 0.1 ug/mL): 1.05
NF-kB SEAP reporter activity [1, 3]: 1.07
NF-kB SEAP reporter activity [1, 4]: 1.35
NF-kB SEAP reporter activity [1, 5]: 1.07

N=C1NC(=O)/C(=C/c2ccc(O)cc2)S1 (library stock concentration (final ~1000-fold dilution): 10 mM)
NF-kB SEAP reporter activity ([1]; agonist: LPS (TLR4) 0.1 ug/mL): 0.909
NF-kB SEAP reporter activity [1, 3]: 0.678
NF-kB SEAP reporter activity [1, 4]: 1.06
NF-kB SEAP reporter activity [1, 5]: 1.42

N=C1NC(=O)/C(=C/c2ccc(O)cc2)S1
NF-kB SEAP reporter activity [2, 6]: 0.973
NF-kB SEAP reporter activity [2, 7]: 0.96

CCCc1cc(C)[nH]c(=O)c1CNC(=O)c1cc(-c2ccc(N3CCN(C(C)C)CC3)nc2)cc2c1cnn2C(C)C (library stock concentration (final ~1000-fold dilution): 10 mM)
NF-kB SEAP reporter activity ([1]; agonist: LPS (TLR4) 0.1 ug/mL): 1.02
NF-kB SEAP reporter activity [1, 3]: 0.24
NF-kB SEAP reporter activity [1, 4]: 1.19
NF-kB SEAP reporter activity [1, 5]: 1.87

CCCc1cc(C)[nH]c(=O)c1CNC(=O)c1cc(-c2ccc(N3CCN(C(C)C)CC3)nc2)cc2c1cnn2C(C)C
NF-kB SEAP reporter activity [2, 6]: 1.5
NF-kB SEAP reporter activity [2, 7]: 2.36

CCC(C)CCCCC(=O)NC(CCN)C(=O)NC(C(=O)NC(CCN)C(=O)NC1CCNC(=O)C(C(C)O)NC(=O)C(CCN)NC(=O)C(CCN)NC(=O)C(CC(C)C)NC(=O)C(Cc2ccccc2)NC(=O)C(CCN)NC1=O)C(C)O (stereo not drawn) (library stock concentration (final ~1000-fold dilution): 15 uM)
NF-kB SEAP reporter activity ([1]; agonist: LPS (TLR4) 0.1 ug/mL): 0.273
NF-kB SEAP reporter activity [1, 3]: 1.16
NF-kB SEAP reporter activity [1, 4]: 0.936
NF-kB SEAP reporter activity [1, 5]: 0.877

CCC(C)CCCCC(=O)NC(CCN)C(=O)NC(C(=O)NC(CCN)C(=O)NC1CCNC(=O)C(C(C)O)NC(=O)C(CCN)NC(=O)C(CCN)NC(=O)C(CC(C)C)NC(=O)C(Cc2ccccc2)NC(=O)C(CCN)NC1=O)C(C)O (stereo not drawn)
NF-kB SEAP reporter activity ([2]; library stock concentration (final ~1000-fold dilution): 15 uM, agonist: Imiquimod (TLR7) […]): 0.984
NF-kB SEAP reporter activity ([2]; library stock concentration (final ~1000-fold dilution): 15 uM, agonist: MPLA (TLR4) […]): 1.15

CCCC(NC1CCc2cc(F)cc(F)c2C1)C(=O)Nc1cn(C(C)(C)CNCC(C)(C)C)cn1 (stereo not drawn) (library stock concentration (final ~1000-fold dilution): 10 mM)
NF-kB SEAP reporter activity ([1]; agonist: LPS (TLR4) 0.1 ug/mL): 0.636
NF-kB SEAP reporter activity [1, 3]: 0.316
NF-kB SEAP reporter activity [1, 4]: 0.723
NF-kB SEAP reporter activity [1, 5]: 0.298

CCCC(NC1CCc2cc(F)cc(F)c2C1)C(=O)Nc1cn(C(C)(C)CNCC(C)(C)C)cn1 (stereo not drawn)
NF-kB SEAP reporter activity [2, 6]: 0.373
NF-kB SEAP reporter activity [2, 7]: 0.669

NC(=O)c1ccc(N(C(N)=O)c2c(F)cccc2F)nc1-c1ccc(F)cc1F
NF-kB SEAP reporter activity [2, 6]: 0.688
NF-kB SEAP reporter activity [2, 7]: 1.44

NC(=O)c1ccc(N(C(N)=O)c2c(F)cccc2F)nc1-c1ccc(F)cc1F (library stock concentration (final ~1000-fold dilution): 10 mM)
NF-kB SEAP reporter activity ([1]; agonist: LPS (TLR4) 0.1 ug/mL): 1.06
NF-kB SEAP reporter activity [1, 3]: 0.695
NF-kB SEAP reporter activity [1, 4]: 0.455
NF-kB SEAP reporter activity [1, 5]: 0.465

COc1c(C)c(C(=O)c2ccc(N)c(C(=O)O)c2)n2ccccc12 (library stock concentration (final ~1000-fold dilution): 10 mM)
NF-kB SEAP reporter activity ([1]; agonist: LPS (TLR4) 0.1 ug/mL): 0.894
NF-kB SEAP reporter activity [1, 3]: 1.08
NF-kB SEAP reporter activity [1, 4]: 1.21
NF-kB SEAP reporter activity [1, 5]: 1.35

COc1c(C)c(C(=O)c2ccc(N)c(C(=O)O)c2)n2ccccc12
NF-kB SEAP reporter activity [2, 6]: 0.962
NF-kB SEAP reporter activity [2, 7]: 1.05

Cc1c(C(=O)Nc2ccc(Oc3ccnc4[nH]cc(-c5ccccc5)c34)c(F)c2)c(=O)n(-c2ccc(F)cc2)n1C (library stock concentration (final ~1000-fold dilution): 10 mM)
NF-kB SEAP reporter activity ([1]; agonist: LPS (TLR4) 0.1 ug/mL): 0.63
NF-kB SEAP reporter activity [1, 3]: 0.819
NF-kB SEAP reporter activity [1, 4]: 0.14
NF-kB SEAP reporter activity [1, 5]: 0.149

Cc1c(C(=O)Nc2ccc(Oc3ccnc4[nH]cc(-c5ccccc5)c34)c(F)c2)c(=O)n(-c2ccc(F)cc2)n1C
NF-kB SEAP reporter activity [2, 6]: 0.253
NF-kB SEAP reporter activity [2, 7]: 0.315

O=C1O[C@H]([C@@H](O)CO)C(O)=C1OP(=O)(O)O
NF-kB SEAP reporter activity ([2]; library stock concentration (final ~1000-fold dilution): 10 mM water, agonist: Imiquimod (TLR7) […]): 0.995
NF-kB SEAP reporter activity ([2]; library stock concentration (final ~1000-fold dilution): 10 mM water, agonist: MPLA (TLR4) […]): 1.02
